Reference: PubChem BioAssay AID686979 (National Center for Advancing Translational Sciences (NCATS), 2013)
Where “and” joins values, the source holds several entries; their conditions need not be identical. Equal values may be shown once. Out of some 420,000 compounds screened, about 50,000 (12%) were called active. The inconclusive results got no clear call from the source; some entries with a clear call stand among them for comparison. The call rests on the fitted dose curve; in most records, active means well fitted inhibition curve with a large enough effect; inconclusive means small, poorly fitted or top-dose-only effect; inactive means flat fitted curve, though single readings scatter. Potencies of inconclusive entries are left out as doubtful fits.

Assay: qHTS for Inhibitors of human tyrosyl-DNA phosphodiesterase 1 (TDP1): qHTS in cells in presence of CPT; further: nearly all actives have a fitted effect of over 55% in size
Conditions: chicken DT40 Tdp1-/-;hTDP1 cells + 20 nM CPT, ATP luminescence, 48 h; activity change, negative = growth inhibition: at 46.2 µM (top of the series)
In short: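 Chicken DT40 Tdp1-/- cells stably complemented with human TDP1 were seeded at 400 cells/well in medium containing 20 nM camptothecin, exposed to pin-transferred compounds, and grown at 37 °C for at least 48 hr. Viability was read as ATP luminescence.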
On the % scale 0 is the no-effect control and ±100 the full control effect; potency means the concentration at half of the fitted maximal effect; tags describe the fitted curve by direction and shape.

Row | Structure (SMILES) | Potency | activity change, negative = growth inhibition
1 | CNCCCCCCCCSc1nc(C(C)C)ccc1C(=O)c1cccs1 | active: 4.22 µM | 
2 | C=CCSC1=N/C(=C\C=C\c2ccco2)C(=O)S1 | active: 23.1 µM | 
3 | Cc1ccccc1N1CCN(Cc2cc3c(cc2[N+](=O)[O-])OCO3)CC1 | inconclusive [inhibitor, single point] | 
4 | C=CCc1cc(Cl)ccc1OCCCn1ccnc1 | inconclusive [inhibitor, single point] | 
5 | COc1cccc(C2=Cc3ccc(F)cc3C(CC(C)=O)N2c2ccc(C#CC3(O)CCCCC3)cc2)c1 (stereo unspecified) | inconclusive [inhibitor, single point] | 
6 | COC(=O)c1sccc1S(=O)(=O)N1CCN(c2ccc(Cl)cc2)CC1 | inconclusive [inhibitor, single point] | 
7 | Cc1ccc(C(=O)Nc2ccccc2N2CCCCC2)cc1[N+](=O)[O-] | inconclusive [inhibitor, single point] | 
8 | COc1ccc2cc(C(=O)Nc3ccc(Cl)cc3)sc(=O)c2c1OC |  | inactive: -9.72%
9 | Cc1scc(CN2CCN(c3ccc(F)cc3)CC2)c1C | inconclusive [inhibitor, single point] | 
10 | COc1ccc(Br)cc1CNC(=O)CCc1cn(Cc2ccc(C)cc2)c2ccccc12 | inconclusive [inhibitor, single point] | 
11 | CCOC(=O)c1ccccc1NC(=O)c1cc2c(s1)-c1ccccc1SC2 | inconclusive [inhibitor, single point] | 
12 | Cc1ccc(C)n1CCN1CCN(C(=O)c2ccco2)CC1 | inconclusive [inhibitor, partial curve] | 
13 | Cc1nc(N2CCc3ccccc3C2)[nH]c(=O)c1CCC(C)C | inconclusive [inhibitor, single point] | 
14 | CCC1CN(C(=O)N2CCC(C(=O)NCc3cccc(F)c3)CC2)c2ccccc2O1 (stereo unspecified) | inconclusive [inhibitor, partial curve] | 
15 | COc1ccc(N(CC(=O)NCCc2ccccc2)C(=O)CCC(=O)Nc2nccs2)c(OC)c1 | inconclusive [inhibitor, single point] | 
16 | O=C(N/N=C/c1cn(-c2ccccc2)nc1-c1cccnc1)c1ccc(F)cc1 | inconclusive [inhibitor, single point] | 
17 | CN(C)c1ccc(-c2[nH][nH]c(=O)c2NC(=O)c2ccc3ccccc3n2)cc1 | inconclusive [inhibitor, single point] | 
18 | COC(=O)c1cccc(C(=O)N2CCCC(C(=O)c3ccccc3OC)C2)c1 (stereo unspecified) | inconclusive [inhibitor, single point] | 
19 | COc1ccc(O)c(C2=Nc3ccccc3N=C(c3ccco3)C2)c1 | inconclusive [inhibitor, partial curve, poor fit] | 
20 | CCOc1ccc(S(=O)(=O)Nc2ccc(C(=O)NCCCN3CCCC3=O)cc2)cc1 | inconclusive [inhibitor, single point] | 
21 | CCOc1ccc(Nc2c3c(nc4ncnn24)CC(C)CC3)cc1 (stereo unspecified) | inconclusive [inhibitor, partial curve] | 
22 | CCCCNc1c2c3c(cccc3n(C)c1=O)C(=O)c1ccccc1-2 | inconclusive [inhibitor, single point] | 
23 | O=C(Cn1c(COc2ccc(Cl)cc2)nc2ccccc21)NCC(F)(F)F |  | inconclusive: -30.4% [inhibitor]
24 | CC(C)CC(=O)Nc1ccnn1C1CCN(C(=O)c2ccc(F)cc2Cl)CC1 |  | inactive: -2.48%

Row | Structure (SMILES) | Potency | activity change, negative = growth inhibition
25 | COc1ccc(-c2csc(NC(=O)c3ccoc3C)n2)cc1 |  | inactive: -26.4%
26 | O=C1c2ccccc2C(=Cc2cccnc2)c2ccccc21 |  | inactive: -4.72%
27 | NNc1nc2c(F)cccc2s1 | inconclusive [inhibitor, single point] | 
28 | COc1ccc(N=c2oc3cc(O)ccc3cc2C(=O)NCC2CCCO2)cc1 (stereo unspecified) | inconclusive [inhibitor, partial curve] | 
29 | Cc1cc(C)n2cc(CSc3ccc(Cl)cc3)nc2n1 | inconclusive [inhibitor, single point] | 
30 | O=C(CN1C(=O)C2CC=C(Cl)CC2C1=O)N1CCOCC1 (stereo unspecified) |  | inactive: -2.16%
31 | COc1ccc(CCNC(=O)CCc2cn(Cc3ccc(F)cc3)c3ccccc23)cc1OC | inconclusive [inhibitor, single point] | 
32 | OC1c2c(F)cccc2N=C2CCCCCN21 (stereo unspecified) | inconclusive [inhibitor, partial curve, poor fit] | 
33 | Cc1cccc(C)c1NC(=O)CN(C1CCCCC1)S(C)(=O)=O |  | inactive: -6.7%
34 | CCC(=O)N/N=C(\C)CC(=O)Nc1cccc([N+](=O)[O-])c1 |  | inactive: -21%
35 | Cc1ccc(Cl)cc1N1CCN(C(=O)c2nn(C)c3c2CS(=O)(=O)c2ccccc2-3)CC1 | active: 20.6 µM | 
36 | CC1CN(C(=S)SCC(=O)c2ccc([N+](=O)[O-])cc2)CC(C)O1 (stereo unspecified) | active: 2.59 µM | 
37 | Fc1ccccc1/C=N/n1cc(-c2ccccc2)[nH]c1=S | active: 14.6 µM | 
38 | CCOC(=O)c1ccc(NC(=O)c2ccc[n+]([O-])c2)cc1 |  | inactive: 11.8%
39 | O=C(Nc1ccccc1Oc1cccnc1)C1CCCN(C/C=C/c2ccc(F)cc2)C1 (stereo unspecified) | inconclusive [inhibitor, single point] | 
40 | CC(=O)Nc1cccc(C(=O)OCC(=O)Nc2ccc(Cl)cn2)c1 |  | inactive: -12.1%
41 | Cn1cc(-c2csc(C(O)c3ccc(F)c(F)c3)n2)cn1 (stereo unspecified) | inconclusive [inhibitor, single point] | 
42 | COc1cc(S(=O)(=O)N2CCN(C(=O)c3ccccc3)CC2)c(OC)cc1Br | inconclusive [inhibitor, single point] | 
43 | O=C(NC(=S)NC1C2CC3CC(C2)CC1C3)c1ccccc1 (stereo unspecified) | inconclusive [inhibitor, single point] | 
44 | COc1ccc(NC(C)C(=O)N/N=C/c2ccccc2OCc2ccc(Br)cc2)cc1 (stereo unspecified) | inconclusive [inhibitor, single point] | 
45 | CCOC(=O)c1ccc(-c2c(-c3cc(OC)c(OC)c(OC)c3)noc2C)cc1F | active: 1.12 µM and active: 1.64 µM | 
46 | O=C(NC(=S)NC(=O)c1ccccc1F)c1ccccc1F |  | inactive: 5.2%
47 | CC1(C)OC(=O)C2=C(C[C@@H](C3CC3)O[C@H]2CCc2cccc(Cl)c2)O1 | inconclusive [inhibitor, single point] | 
48 | O=C(CCn1c(=O)[nH]c2ccccc2c1=O)NCCCN1CCN(c2cccc(Cl)c2)CC1 | active: 20.6 µM | 

Row | Structure (SMILES) | Potency | activity change, negative = growth inhibition
49 | CCc1ccc(NC(=O)c2ccc(NS(=O)(=O)c3c(C)noc3C)cc2)cc1 | inconclusive [inhibitor, single point] | 
50 | Nc1cc([N+](=O)[O-])ccc1Nc1ccccc1 | active: 14.6 µM | 
51 | Cc1ccccc1N/C(SCc1ccc(Cl)cc1)=C(/C#N)C(N)=O | inconclusive [inhibitor, single point] | 
52 | C[N+]1(CC(=O)c2cccc([N+](=O)[O-])c2)CCOCC1 |  | inactive: -4.72%
53 | Cc1ccc(C2=CC(c3ccccc3)n3ncnc3N2)c(C)c1 (stereo unspecified) | inconclusive [inhibitor, single point] | 
54 | Cc1ccc(S(=O)(=O)Nc2ccccc2N=Cc2c(F)c(F)c(F)c(F)c2F)cc1 | inconclusive [inhibitor, single point] | 
55 | Cc1cccc(C)c1OCc1cc(C(=O)NCc2cn(C)nc2C)no1 | active: 18.4 µM | 
56 | Cc1cccc(N2CCN(C(=O)c3cccn3-c3nnc(N4CCCCC4)s3)CC2)c1C | active: 23.1 µM | 
57 | Nc1ncc(-c2ccccc2)c(-c2ccc(O)cc2O)n1 |  | inactive: -6.92%
58 | Cc1cc(C)c(C#N)c(SCC(=O)Nc2ccccc2C(N)=O)n1 | inconclusive [inhibitor, single point] | 
59 | CC(Nc1cc(=O)n(C)c(=O)[nH]1)c1ccccc1 (stereo unspecified) |  | inconclusive: -30% [inhibitor]
60 | CCC1C(=O)N=C(SCC(=O)Nc2nc3ccccc3s2)NC1=O (stereo unspecified) |  | inactive: -5.55%
61 | CN1CCN(C2=C(NS(=O)(=O)c3ccccc3)C(=O)c3ccccc3C2=O)CC1 | active: 23.1 µM | 
62 | COCCn1c(CN(C)Cc2ccccc2)nc2c1c(=O)n(C)c(=O)n2C | inconclusive [inhibitor, single point] | 
63 | O=C(Cc1ccc(Cl)cc1)N/N=C1\CCCc2ccccc21 | inconclusive [inhibitor, single point] | 
64 | O=C(COc1ccc(NS(=O)(=O)c2ccc(F)cc2)cc1)N1CCOCC1 |  | inactive: -1.59%
65 | CC(C)OC(=O)c1cccnc1N1CCN(c2cccc(Cl)c2)CC1 | inconclusive [inhibitor, single point] | 
66 | O=C(NC1CC1)c1ccc(Cn2c(SCc3ccc(F)cc3)nc3cccnc32)cc1 |  | inactive: -29.6%
67 | CC(=O)c1ccc(NC(=O)CSc2nccn2CCc2ccccc2)cc1 | inconclusive [inhibitor, partial curve] | 
68 | O=S(=O)(Nc1cc2nc3ccccc3nc2n1Cc1ccccc1)c1ccc(Cl)cc1 | inconclusive [inhibitor, single point] | 
69 | CCc1cccc(C)c1NC(=O)c1cc(S(=O)(=O)N2CCCCCC2)cn1C | inconclusive [inhibitor, partial curve, poor fit] | 
70 | CCCCCCCNC(=O)C1(CC2CC(c3ccc(Cl)cc3)=NO2)CCN(C(=O)c2cc(OCC)c(OCC)c(OCC)c2)CC1 (stereo unspecified) | active: 20.6 µM | 
71 | CCC1CCCCN1C(=O)CSc1nc2ccsc2c(=O)n1Cc1ccccc1 (stereo unspecified) | active: 20.6 µM | 
